From article PMC4336329 (PLoS ONE, 2015)
The whole screen tested about 310,000 compounds, of which about 2,200 (0.71%) showed an effect of 50% or more. Effects have a minus sign here. This is one part of the list.

target: human ether-à-go-go-related gene (hERG) potassium channel (human, UniProt Q12809); test: primary screen, population patch clamp on CHO cells stably expressing hERG
Sequence (Q12809 whole entry, looked up): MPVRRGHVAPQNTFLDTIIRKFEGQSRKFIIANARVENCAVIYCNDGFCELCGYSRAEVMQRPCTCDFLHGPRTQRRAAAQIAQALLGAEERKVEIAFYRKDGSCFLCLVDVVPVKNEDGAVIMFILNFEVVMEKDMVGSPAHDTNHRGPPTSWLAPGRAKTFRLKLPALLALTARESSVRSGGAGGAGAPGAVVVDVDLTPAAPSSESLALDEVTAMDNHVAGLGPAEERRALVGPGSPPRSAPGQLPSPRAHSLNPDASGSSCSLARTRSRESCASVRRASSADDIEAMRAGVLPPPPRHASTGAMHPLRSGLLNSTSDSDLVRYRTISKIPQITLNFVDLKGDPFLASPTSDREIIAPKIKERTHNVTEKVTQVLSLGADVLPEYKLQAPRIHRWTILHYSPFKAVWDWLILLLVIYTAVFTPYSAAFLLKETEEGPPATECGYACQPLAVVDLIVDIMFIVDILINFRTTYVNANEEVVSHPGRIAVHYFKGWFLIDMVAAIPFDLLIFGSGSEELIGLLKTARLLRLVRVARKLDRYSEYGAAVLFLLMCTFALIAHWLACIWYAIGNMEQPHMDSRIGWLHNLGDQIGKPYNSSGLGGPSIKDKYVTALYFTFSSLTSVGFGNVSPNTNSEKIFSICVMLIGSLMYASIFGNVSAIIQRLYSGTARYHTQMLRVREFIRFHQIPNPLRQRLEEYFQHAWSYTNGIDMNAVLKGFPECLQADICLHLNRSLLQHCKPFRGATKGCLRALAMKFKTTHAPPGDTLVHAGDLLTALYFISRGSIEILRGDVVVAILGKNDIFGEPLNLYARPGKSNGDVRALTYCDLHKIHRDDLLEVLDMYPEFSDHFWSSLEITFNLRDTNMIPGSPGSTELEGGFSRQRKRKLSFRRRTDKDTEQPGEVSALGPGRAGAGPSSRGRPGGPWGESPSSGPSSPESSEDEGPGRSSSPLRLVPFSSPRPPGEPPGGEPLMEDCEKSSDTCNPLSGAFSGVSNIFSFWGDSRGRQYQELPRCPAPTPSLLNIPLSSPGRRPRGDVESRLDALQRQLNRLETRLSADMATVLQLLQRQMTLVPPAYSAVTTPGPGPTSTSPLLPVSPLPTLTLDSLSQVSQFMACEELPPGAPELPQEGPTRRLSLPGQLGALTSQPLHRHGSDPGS

Compound | hERG current change (%, negative = inhibition) at 1uM
CCN(c1ccccc1)S(=O)(=O)c1ccc(C(C(=O)OC)C(=O)OC)c([N+](=O)[O-])c1 | 13.7%
O=C(NCCNc1ccc([N+](=O)[O-])cc1C(F)(F)F)c1cccc(F)c1 | -0.818%
Cc1cc(C)n2nc(C(=O)OCC(=O)Nc3ccc4c(c3)OCO4)nc2n1 | 3.56%
COc1cc2cc(C(=O)N[C@@H](Cc3ccccc3)C(=O)O)n(C)c2c(OC)c1OC | 12.9%
COc1ccc(CC(=O)O/N=C(\N)c2ccc(OC)cc2)cc1 | -0.144%
COc1ccccc1N1CCN(/N=C\c2cccnc2)CC1.Cl | 11.8%
Cc1ccc(-n2nnnc2SCC(=O)c2cc(C)n(CC3CCCO3)c2C)cc1 (centres unmarked) | 9.93%
CCCCCCCC1CC(CSc2ncn[nH]2)OC1=O (centres unmarked) | 6.43%
CN(Cc1cnccn1)Cc1cn(Cc2ccccc2)nc1-c1ccc2c(c1)OCO2 | 5.86%
COc1cccc(NC(=O)Cn2c(CCC(=O)O)ccc2-c2ccc(Cl)cc2)c1 | 13%
O=C(Cc1ccc([N+](=O)[O-])cc1)N1CCN(Cc2ccc3c(c2)OCO3)CC1 | -28%
CCOc1ccc(NC(C)=O)cc1 | 2.38%
CCCCn1c(SCC(=O)c2ccccc2)nc2ccsc2c1=O | 11%
CC(NCC(O)COCCC12CC3CC(CC(C3)C1)C2)c1ccccc1.Cl (centres unmarked) | 11.7%
Cc1ccc2c(c1)C(c1ccccc1)N(C(=O)c1cccc([N+](=O)[O-])c1)CC(=O)N2 (centres unmarked) | 3.99%
Cc1ccc2sc(NNC(=O)c3cc(=O)c4ccccc4o3)nc2c1C | 12.8%
CCN(C(=O)COC(=O)CC(C)c1ccccc1)c1c(N)n(Cc2ccccc2)c(=O)[nH]c1=O (centres unmarked) | 17.7%
O=[N+]([O-])c1ccc(S(=O)(=O)Nc2nc(-c3ccccc3)cs2)cc1 | 14.5%
O=C(Cn1nc(-c2ccccc2)ccc1=O)NCc1ccc2c(c1)OCO2 | -3.55%
COc1ccccc1NS(=O)(=O)c1cccc(C(=O)N/N=C/c2ccccc2OCC(=O)O)c1 | 7.73%
CSc1ccc(CCNC(=O)c2nn(C)c3c2CS(=O)(=O)c2ccccc2-3)cc1 | -0.0108%
Cc1ccccc1C(=O)c1cccn1CC(=O)NCC(C)c1ccccc1 (centres unmarked) | 4.86%
O=C(Nc1ccccc1Cl)N1CCn2c(nc3ccccc32)C1 | 17%
